Experimental data taken from PubChem BioAssay AID463173 (ICCB-Longwood Screening Facility, Harvard Medical School, 2010).
The whole screen tested about 52,000 compounds, of which about 1,700 (3.3%) were called active. No stated cut-off is given here; in the data, active means survival mostly below about 52% (no sharp cut-off); inactive means mostly above about 56%. The list shows a part of the results.

Tested on: Wild type
Experiment: growth inhibition of S. aureus wild type versus tarO mutant, primary screen, teichoic acid synthesis inhibitors, RN4220, OD600 (AID 463173)
Conditions: S. aureus RN4220 wild type/DeltatarO growth, OD600, 18 h, stronger effect = lower value, screened at 18.75 µg/mL (by protocol)

Structure (SMILES) | survival
CCn1cc(C(=O)N2CCN(c3cc(C)ccc3C)CC2)c(=O)c2cc(S(=O)(=O)N(C)C3CCCCC3)ccc21 | inactive: 73%
Cc1cccc(Nc2c3c(nc4nncn24)CCC3)c1 | inactive: 82%
Cc1ccc(NC(=O)CSc2nc3c([nH]c4ccccc43)c(=O)n2-c2ccccc2)c(C)c1 | inactive: 80%
CCCCN1CCc2nc(N3CCN(c4ncccn4)CC3)ncc2C1 | inactive: 87%
O=C(NCCc1nc2ccccc2[nH]1)c1ccc(F)cc1 | inactive: 116%
CCN(c1ccccc1)S(=O)(=O)c1ccc(NC(=O)c2cc(=O)c3cc(C)c(C)cc3o2)cc1 | inactive: 84%
Cc1cccc(NS(=O)(=O)c2ccc3c(c2)CCN3C(=O)CCC(=O)O)c1C | inactive: 74%
COc1ccc(S(=O)(=O)Nc2cc3c(cc2NCc2ccccc2)n(C)c(=O)n3C)cc1OC | inactive: 94%
COc1cccc(-n2cc(C(=O)NCc3cccc(Cl)c3)c3ccccc3c2=O)c1 | inactive: 80%
Cn1cc(-c2nnc(-c3ccccc3)o2)c2ccccc21 | inactive: 109%
Cc1cc(C)n(C(C)n2nc(C)cc2C)n1 | inactive: 108%
COc1ccccc1N1CCN(C(=O)Cn2c(=O)nc(-c3ccccc3)c3cc(Cl)ccc32)CC1 | inactive: 73%
CCOc1ccc(NC(=O)c2ccc(-c3ccccc3)s2)cc1 | inactive: 84%
Cc1nc2c(-c3ccc(F)cc3)c(C)nn2c(C)c1CCC(=O)NCc1ccc(Cl)cc1 | inactive: 91%
CCOc1ccc(C(=O)Nc2ccc3nc(SCc4ccccc4)sc3c2)cc1 | inactive: 96%
Cc1cc(C)c(NC(=O)c2cc3c(=O)n4ccccc4nc3n2C)c(C)c1 | inactive: 81%
Cc1cc(-c2nc3ncccc3o2)ccc1NC(=O)c1ccc(Br)cc1 | inactive: 146%
Cc1ccc2c(=O)cc(CSc3nnc(-c4ccccc4)n3C)[nH]c2c1C | inactive: 58%
CC(C)c1ccc(S(=O)(=O)Nc2ccc3oc4c(c3c2)C(=O)CC(C)(C)C4)cc1 | inactive: 138%
CCOC(=O)Cn1c(=O)n(C2CCCCC2)c2nc(-c3ccc(Cl)cc3)nc(C(N)=O)c21 | inactive: 112%
CC(=O)Nc1ccc(S(=O)(=O)N2CCC(Oc3ccc(-n4cnnn4)cc3)CC2)cc1 | inactive: 118%
CC1CCN(C(=O)c2cnn(-c3cccc(Cl)c3)c2C2CCN(C(=O)OC(C)(C)C)CC2)CC1 | inactive: 68%

Structure (SMILES) | survival
CC(=O)N1CCc2c(sc3c2c(=O)n(-c2ccccc2C)c(=O)n3Cc2cccc(F)c2)C1 | inactive: 80%
COc1cc(OC)cc(-n2nnc(-c3nc(-c4ccccc4Cl)no3)c2N)c1 | inactive: 99%
COCCCNC(=O)c1sc2nc(C)c(C(=O)Nc3ccc(C)cc3C)c(-c3ccc(Cl)cc3)c2c1N | inactive: 125%
Cc1c(Cl)cccc1NC(=O)c1ccc(C(=O)Nc2cccc(Cl)c2C)cc1 | inactive: 79%
COc1ccc(OCC(=O)NCC(c2ccc(Cl)cc2)N2CCCCC2)cc1 (stereo not drawn) | inactive: 80%
Cc1cccc2c(=O)c(C(=O)NCc3cccs3)c[nH]c12 | inactive: 104%
CSc1ccc(CNC(=O)c2ccccc2NC(=O)c2nsc3ccccc23)cc1 | inactive: 90%
CC(=O)N1c2ccccc2C(=O)C1N1CCN(c2ccccc2)CC1 (stereo not drawn) | inactive: 80%
COc1ccc(NC(=O)c2c(-c3ccccc3)c(-c3ccccc3)nn(C)c2=O)c(OC)c1 | inactive: 78%
Cc1c(CNC(C)CCc2ccccc2)c(C(=O)O)c(C)n1Cc1ccc(F)cc1Cl (stereo not drawn) | inactive: 93%
O=C(Nc1ccccc1-c1nc2ccccc2s1)c1cc(Cl)cc(Cl)c1 | inactive: 72%
COc1ccc(CN2COc3ccc4c(oc(=O)c5ccccc54)c3C2)cc1OC | inactive: 91%
Cc1ccccc1Nc1c(-c2ccc(N3CCOCC3)cc2)nc2ncccn12 | inactive: 82%
COC(=O)c1scc(-c2ccccc2)c1S(=O)(=O)Nc1cccc(C)c1C | inactive: 100%
CCCCOc1ccc(C(=O)N(Cc2ccc(C(C)C)cc2)C2CCS(=O)(=O)C2)cc1 (stereo not drawn) | inactive: 54%
O=C(c1ccccc1Cl)n1nc(-c2cccnc2)nc1NCc1ccc(F)cc1 | inactive: 84%
Cc1cc(C)c(NC(=O)CCc2c(C)nc3c(c(C)nn3C(C)(C)C)c2C)c(C)c1 | inactive: 72%
CCOC(=O)c1ccc(NC(=O)CCc2c(C)nc3nc[nH]n3c2=O)cc1 | inactive: 89%
O=C(Oc1ccc2c(c1)OCO2)c1cccc(S(=O)(=O)N2CCCC2)c1 | inactive: 105%
COc1ccc(N2CCN(C3=NS(=O)(=O)C(c4cccc(Br)c4)=C3C)CC2)cc1 | inactive: 89%
COc1ccc(C2=NN(CC(=O)NCCCN(C)c3ccccc3)C(=O)CC2)cc1 | inactive: 135%
COC(=O)c1cc2sc(C)cc2n1Cc1ccc(Br)cc1F | inactive: 76%

Structure (SMILES) | survival
COc1ccc(NC(=O)c2nc3nc(C)cc(C(F)F)n3n2)c(C)c1 | inactive: 83%
COCCNC(=O)C(=O)NCC(c1cccnc1)N1CCN(c2ccccc2F)CC1 (stereo not drawn) | inactive: 87%
Cc1ccc2oc3c(c(=O)c2c1)C(c1ccc(F)cc1)N(c1nc(C)c(C)s1)C3=O (stereo not drawn) | inactive: 138%
COc1ccc(C2CC(=O)Nc3c2c(=O)[nH]c2nc4ccccc4n32)cc1OC (stereo not drawn) | inactive: 171%
COc1ccccc1Nc1nc2ccc(Cl)cc2nc1-n1nc(C)cc1C | inactive: 138%
CCOC(=O)c1cccc(NC(=O)C2CCN(S(=O)(=O)c3cn(C)cn3)CC2)c1 | inactive: 75%
Cc1ccc(C)c(NS(=O)(=O)c2cc3c(cc2Cl)NC(=O)CO3)c1 | inactive: 76%
CCOC(=O)c1ccc(NC(=O)CC2C(=O)N(c3ccc(F)cc3)C(=O)N2Cc2ccc3c(c2)OCO3)cc1 (stereo not drawn) | inactive: 111%
COCCCNc1ncnc2c1cnn2-c1ccc(F)cc1 | inactive: 82%
CCc1ccc(NC(=O)N2CC(C)Oc3ccc(C)cc32)cc1 (stereo not drawn) | inactive: 110%
CNC(=S)N(Cc1ccco1)Cc1cc2cc(C)ccc2n2nnnc12 | inactive: 115%
CC(C)(C)OC(=O)N1CCC(c2c(C(=O)NCCN3CCC(Cc4ccccc4)CC3)cnn2-c2ccccc2)CC1 | inactive: 74%
CN1C(=O)c2ccc(NC3=NS(=O)(=O)c4ccccc43)cc2C1=O | inactive: 117%
COc1cc2ccccc2cc1C(=O)Nc1ccc2oc(-c3cccc(Cl)c3Cl)nc2c1 | inactive: 71%
CS(=O)(=O)N(CC(=O)N1CCCC1)c1ccc2c(c1)OCO2 | inactive: 95%
COc1ccc(-n2cc(-c3ccccc3)nc2SCC(=O)Nc2ccccc2)cc1Cl | inactive: 71%
CCCn1c(NCc2ccccc2C)nc2ccccc21 | inactive: 95%
O=C(CCn1[nH]c(=O)c2ccccc2c1=O)OC1CCCCC1 | inactive: 100%
O=c1[nH]nc2c3c(cccc13)-c1ccccc1-2 | inactive: 104%
CCc1ccc(S(=O)(=O)c2nnn3c2nc(N2CCCC2)c2sccc23)cc1 | inactive: 111%
COc1ccc(-c2cc(C(F)(F)F)n3nc(C(=O)Nc4cccc(Cl)c4C)cc3n2)cc1 | inactive: 79%
CCOC(=O)c1ccc(NC(=O)Cn2cnc(S(=O)(=O)N3CCCC3)c2)cc1 | inactive: 67%

Structure (SMILES) | survival
COc1ccc(-n2nc3c(N4CCCC(C(=O)NCCc5ccc(C)cc5)C4)nnc(C)c3c2C)cc1 (stereo not drawn) | inactive: 68%
Cc1ccccc1C1C=C(c2ccc(Cl)cc2)Nc2nnnn21 (stereo not drawn) | inactive: 84%
Cc1nn(-c2ccc(N3CCCCC3)nn2)c(C)c1CCC(=O)NCc1ccccc1F | inactive: 91%
CN1C(=O)Cc2cc(S(=O)(=O)CCC(=O)N3CCN(c4ccccc4F)CC3)ccc21 | inactive: 117%
CCSc1ncc(Cl)c(C(=O)Nc2c(C(=O)Nc3ccc(Cl)cc3)oc3ccccc23)n1 | inactive: 115%
O=C(c1ccc2c(c1)N(Cc1ccccc1)C(=O)c1ccccc1S2(=O)=O)N1CCN(c2ccccn2)CC1 | inactive: 82%
CCOc1ccc(OCC)c(NC(=O)CCc2c(C)nc3c(c2C)c(=O)n(C)c(=O)n3C)c1 | inactive: 70%
CCOc1ccccc1CNC(=O)c1cc(-c2ccc(OC)cc2)nc2ccc(C(C)C)cc12 | inactive: 65%
COc1cc(C2c3c(oc4ccccc4c3=O)C(=O)N2c2nnc(C(C)C)s2)cc(OC)c1OC (stereo not drawn) | inactive: 67%
CCOC(=O)c1cccc(NS(=O)(=O)c2cn(C)c(C)n2)c1 | inactive: 73%
COc1ccc(CNC(=O)c2ccc3c(c2)nc2n3CCCCC2)c(OC)c1 | inactive: 82%
COC(=O)c1ccccc1NC(=O)Cn1c(=O)n(-c2ccc(Cl)cc2)c(=O)c2c(C)c(C)sc21 | inactive: 76%
COc1ccc(/C=C/c2noc(-c3ccccc3O)n2)cc1OC | inactive: 136%
Cc1ccc(Cn2ccn(Cc3ccccc3C)c(=O)c2=O)cc1 | inactive: 91%
COc1ccc(C(=O)N2CCc3cc(OC)c(OC)cc3C2COc2ccc3c(C)cc(=O)oc3c2)c(OC)c1 (stereo not drawn) | inactive: 73%
COc1cccc(-c2cc(C(=O)Nc3ccc(C)cc3)[nH]n2)c1 | inactive: 66%
Cc1ccc(CN2CCN(CC(=O)NCc3ccccc3Cl)C2=O)cc1 | inactive: 80%
Cc1cc(C)cc(-n2nnc(-c3nc(-c4ccccc4F)no3)c2C)c1 | inactive: 71%
COc1cc(NS(=O)(=O)c2ccc3c(c2)CCCN3C(C)=O)cc(OC)c1OC | inactive: 70%
Cc1cc(C)n(-c2nc3ccccc3nc2Nc2cc(C(=O)O)ccc2C)n1 | inactive: 68%
CCOc1ccccc1NC(=O)CN1C(=O)C2(SCC(=O)N2c2cccc(F)c2)c2ccccc21 (stereo not drawn) | inactive: 97%
Cc1c(Cl)cccc1NC(=O)CCn1nc(C)c2c(C)n(-c3ccccc3)nc2c1=O | inactive: 83%
